Measured values as given in PubChem BioAssay AID1508642 (National Center for Advancing Translational Sciences (NCATS), 2021).
Out of some 43,000 compounds screened, about 200 (0.47%) were called active. About 12% were inconclusive and are not listed. Calls come from the whole dose curve; as a rule, active = well fitted cell-killing curve with a large enough effect; inconclusive = small, poorly fitted or top-dose-only effect, or effect the other way; inactive = flat fitted curve, though single readings scatter. The list shows a part of the results.

assay: Cell viability qHTS assay in S16 Pmp22-F2sN cells; conditions: S16 Pmp22-F2sN Schwann cells viability, CellTiter-Glo, 24 h; series mostly up to 57.5 µM; activity change, negative = cytotoxicity: at the top concentration; note: nearly all actives have a fitted effect of over 65% in size
Procedure, shortened: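 Used to flag compounds lowering reporter output through toxicity, this quantitative HTS measures ATP-based CellTiter-Glo luminescence in S16 Pmp22-F2sN Schwann cells after 24 h compound exposure at 37C.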
% is set by controls: 0 for no effect and ±100 for the full control effect.

| Compound | activity change, negative = cytotoxicity |
| --- | --- |
| CCOc1ccc(N(C)S(=O)(=O)c2c(C(=O)N3CCC(C)CC3)c(C)n(C)c2C)cc1 | inactive: 4% |
| Cc1cccc(-n2ncc(C(=O)N3CCN(Cc4ccccc4)CC3)c2C2CCN(C(=O)OC(C)(C)C)CC2)c1 | inactive: -5.97% |
| CCc1ccc(S(=O)(=O)c2nnn3c2nc(Nc2ccc(C)c(Cl)c2)c2sccc23)cc1 | inactive: -1.71% |
| COCCCn1c(=N)c(C(=O)NCc2ccco2)cc2c(=O)n3cccc(C)c3nc21 | inactive: 5.66% |
| CCOC(=O)c1c(NC(=O)COc2ccc(Br)cc2)sc2c1CCCC2 | inactive: 2.91% |
| CC(=O)Nc1cc(C(=O)NCc2ccc(C)cc2)ccc1S(=O)(=O)c1ccc(Cl)cc1 | inactive: -3.03% |
| CCOC(=O)CN1C(C(=O)c2ccccc2)=C(OC(=O)C(C)(C)C)c2ccccc2S1(=O)=O | inactive: 6.59% |
| CSc1cccc(NC(=O)Cn2c(=O)n(Cc3ccccc3)c(=O)c3sc4ccccc4c32)c1 | inactive: -2.23% |
| CCn1c(SCc2cccc(Br)c2)nnc1-c1nonc1NC(C)=O | inactive: -16.8% |
| CC(C)CNC(=O)C(=O)Nc1c2c(nn1-c1ccccc1)CS(=O)(=O)C2 | inactive: -15% |
| Cc1ccc(C(=O)N2CCc3cc(CNC(=O)c4ccc(Br)cc4)ccc32)cc1 | inactive: -13.1% |
| Cc1cccc(NC(=O)c2ccc3c(O)c(S(=O)(=O)c4ccccc4)c(=O)[nH]c3c2)c1C | inactive: 1.35% |
| O=C(Nc1ccc2nc(SCC(=O)N3CCc4ccccc43)sc2c1)c1cccc(F)c1 | inactive: -3.15% |
| Cc1ccccc1-c1nc(CS(=O)(=O)CC(=O)NCCc2ccccc2)c(C)o1 | inactive: 21.9% |
| COc1ccc(S(=O)(=O)N2CCN(Cc3ccc4c(c3)OCO4)CC2)cc1C | inactive: 3.2% |
| CCOC(=O)c1cnc2c(Cl)cc(Cl)cc2c1Nc1cc(C(=O)O)ccc1C | inactive: -3.4% |
| Cc1cccc(C)c1NC(=O)C(=O)NCC(c1ccc2c(c1)OCO2)N1CCOCC1 (stereo unspecified) | inactive: -1.61% |
| COCCNC(=O)CCn1c(=O)c2cc(OC)c(OC)cc2n(CC(=O)Nc2ccccc2C)c1=O | inactive: -13.5% |
| CS(=O)(=O)NCC(c1ccco1)N1CCN(c2ccc(F)cc2)CC1 (stereo unspecified) | inactive: 0.714% |
| O=S(=O)(c1ccc(-c2cc(C(F)(F)F)on2)s1)N1CCN(c2ccccc2)CC1 | inactive: 2.51% |
| Cc1cc(=O)[nH]c2nnc(SCc3c(F)cccc3Cl)n12 | inactive: -4.67% |
| Cc1c(Cl)cccc1NC(=O)CNS(=O)(=O)c1cccs1 | inactive: -5.23% |
| Cc1nc2sccn2c(=O)c1S(=O)(=O)Nc1ccc(N2CCOCC2)cc1 | inactive: -5.22% |
| Cc1ccc(C2CCN(C(=O)Nc3ccc(Cl)cc3)C2)cc1 (stereo unspecified) | inactive: -25.5% |
| COc1ccc(N(CC(C)C)S(=O)(=O)c2nnc(NC(=O)c3cccs3)s2)cc1 | inactive: 2.69% |
| CSc1cccc(NC(=O)C2CCN(S(=O)(=O)c3ccc4c(c3)CCCN4C(=O)C3CCC3)CC2)c1 | inactive: -29.9% |
